Among all 45,000 compounds or so, about 65 (0.1%) were called active. The call rests on the fitted dose curve; in most records, active means well fitted activation curve with a large enough effect; inconclusive means small, poorly fitted or top-dose-only effect; inactive means no such curve, though single readings can be large or run the other way. This is one part of the list.

Chain of UniProt P54803 (P54803 whole entry, looked up): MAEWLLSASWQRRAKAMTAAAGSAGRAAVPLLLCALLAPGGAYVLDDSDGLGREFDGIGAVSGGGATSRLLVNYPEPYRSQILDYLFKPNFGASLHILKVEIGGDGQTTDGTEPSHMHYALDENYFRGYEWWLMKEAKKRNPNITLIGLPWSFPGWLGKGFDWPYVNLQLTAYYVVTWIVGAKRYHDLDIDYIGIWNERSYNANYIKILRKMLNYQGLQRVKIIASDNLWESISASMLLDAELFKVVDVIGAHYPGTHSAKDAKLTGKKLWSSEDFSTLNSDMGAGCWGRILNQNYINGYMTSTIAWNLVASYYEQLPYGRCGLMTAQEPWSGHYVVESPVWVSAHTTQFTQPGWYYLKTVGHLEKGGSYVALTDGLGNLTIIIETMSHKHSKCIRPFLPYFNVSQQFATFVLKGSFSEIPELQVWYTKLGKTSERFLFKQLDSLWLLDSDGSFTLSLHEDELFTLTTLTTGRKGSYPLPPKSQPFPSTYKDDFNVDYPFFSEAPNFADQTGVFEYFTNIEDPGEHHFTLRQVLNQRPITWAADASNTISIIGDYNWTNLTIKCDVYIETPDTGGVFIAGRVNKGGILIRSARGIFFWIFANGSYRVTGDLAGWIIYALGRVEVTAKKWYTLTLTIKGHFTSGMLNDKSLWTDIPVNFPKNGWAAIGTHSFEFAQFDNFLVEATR

The assay has as its target Galactocerebrosidase (Homo sapiens) (UniProt P54803). Briefly: A Novel Cell-Based Assay to Identify Small Molecules for B -Galactocerebrosidase. Further: 0% is about no effect; nearly all actives have a fitted effect of over 65% in size. The conditions noted are these: 145M-Twi-hGALC-G270D cells (Twitcher mouse brain line with human GALC G270D), HMU-beta-Gal fluorescence, 48 h; series mostly up to 57.5 µM; activation: at the top concentration. In outline:
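Fluorescence readout: HMU-β-gal cleavage by mutant GALC (0.1 mM final, citrate/phosphate pH 5.2 with 1 mg/mL taurocholate), stopped with carbonate/bicarbonate plus Triton X-100. Cells: murine Twitcher 145M-Twi expressing human G270D GALC; qHTS for activators.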
On to `CC(NC(=O)Cn1c(=O)oc2cc(S(=O)(=O)NCc3ccccc3)ccc21)c1ccccc1` (stereo unspecified), for which the “activation” value was inactive: -23.1%.
`CC(=O)c1ccc(NC(=O)COc2ccccc2-c2nc(-c3cccc(C)c3)no2)cc1`: the “activation” value is inactive: -14%.
Then `O=C(Nc1cc(C(F)(F)F)ccc1Cl)c1cc(-c2ccc3c(c2)OCCO3)on1`, with inactive: -11%; and `COC(=O)c1cccnc1-n1c(=O)c2cccnc2n(CC(=O)Nc2ccc(C)cc2C)c1=O`, with inactive: 8.46%; and `Cc1ccc2c(c1)N(C(=O)CCC(=O)NCc1ccccc1Cl)CC(C)O2` (stereo unspecified), with inactive: -12.9%.
For `O=C(Nc1ccc(S(=O)(=O)Nc2ncccn2)cc1)c1ccccc1Cl`, the “activation” value is inactive: -19%.
Then `Cn1c(=O)c2c(ncn2CC(=O)Nc2cccc(Cl)c2Cl)n(C)c1=O`, with inactive: -8.59%; and `Cc1cccc(NC(=O)Nc2nnc(N(C)Cc3ccccc3)s2)c1`, with inactive: -1.92%.
For `CC(=O)c1ccc(NC(=O)c2sc(-n3nc(C)c(Cc4ccccc4)c3C)nc2C)cc1`, the “activation” value is inactive: -17%.
Regarding `CCOCCCNc1ncnc2onc(C)c12`, the “activation” value is inactive: -25.2%.
With `Cc1ccc(Cl)cc1N1CCN(S(=O)(=O)c2ccc3c(c2)CC(C)N3C(=O)C2CCC2)CC1` (stereo unspecified) the figure was inactive: -12.7%; with `COc1ccc(-c2nn3c(-c4ccccc4C)nnc3c3ccccc23)cc1`, inactive: -15.2%.
`CN(C(=O)Cn1cc(S(=O)(=O)Cc2ccccc2Cl)c2ccccc21)c1ccccc1`: the “activation” value was inactive: -10.9%.
With `CCN(Cc1ccccc1)Cc1c(O)ccc2c(=O)c(-c3ccc(Cl)cc3Cl)coc12` the figure was inactive: 12.2%.
Turning to `Cc1noc(/C=C/c2cccs2)c1S(=O)(=O)N1CCC(C(=O)NCc2ccccc2Cl)CC1`, the “activation” value is inactive: 2.31%.
Consider `Cc1ccccc1C(=O)NC1(C(F)(F)F)C(=O)Nc2c1c(=O)[nH]c(=O)n2-c1ccc(F)cc1` (stereo unspecified), for which the “activation” value was inactive: -7.97%.
With `COc1cccc(Cn2c(CNC(=O)c3cc([N+](=O)[O-])ccc3Cl)nc3cccnc32)c1` the figure was inactive: 6.12%; with `CCCc1cnc2c(c1SCC(=O)Nc1ccc(C)c(Cl)c1)c(=O)n(C)c(=O)n2C`, inactive: -6.58%.
For the molecule `COc1cc(/C=C(\C#N)c2nc3ccccc3[nH]2)ccc1OCc1cccc(C(F)(F)F)c1`, the “activation” value is inactive: 7.82%.
`CCOc1ccccc1NC(=O)c1ccc(F)c(S(=O)(=O)NCc2ccc3c(c2)OCO3)c1`: the “activation” value is inactive: -18.1%.
On to `CCCCNC(=O)CCCn1c(=O)c2ccccc2n(CC(=O)Nc2ccccc2OCC)c1=O`, for which the “activation” value was inactive: -8.73%.
As to `COc1ccc(CNc2ncnc3onc(-c4ccc(F)cc4)c23)cc1`, the “activation” value is inactive: -26.2%.
Then `CCOc1ccccc1NC(=O)N1CCc2c(sc(C)c2CC)C1c1ccccc1` (stereo unspecified), with inactive: -12.5%; and `CC(Oc1ccccc1)C(=O)Nc1nnc2n1CCS2` (stereo unspecified), with inactive: -14.7%.
With `CCOc1ccccc1NC(=O)Cn1c(=O)ccc2cc(S(=O)(=O)N3CCCC3)ccc21`, the “activation” value is inactive: -6.62%.
On to `CC(=O)N1CCc2nc3sc(C(=O)Nc4ccc(Cl)cc4F)c(N)c3c(C(F)(F)F)c2C1`, for which the “activation” value was inactive: -7.83%.
As for `COC(=O)c1cccc(-n2c(CCC(=O)O)ccc2-c2cccs2)c1`, the “activation” value was inactive: 3.08%.
Then `COc1ccc(C(=O)Nc2ccc(-c3nnc4n3CCCCC4)cc2)cc1OC`, with inactive: -11.7%; and `O=C(c1cc2ccc3cccnc3c2[nH]1)N1CCN(c2ccccc2)CC1`, with inactive: -12.5%; and `COc1ccc(Cn2c(C(=O)O)c(CNCc3ccc(C)o3)c3ccc(C)cc32)cc1`, with inactive: 9.79%.
With `COc1cc(-c2nc3nc(C)cc(C)n3c2Nc2ccc(Cl)cc2)ccc1O` the figure was inactive: -0.923%; with `CCc1ccccc1N1CC(c2nc3ccccc3n2CCCCOc2ccccc2)CC1=O` (stereo unspecified), inactive: -15.2%; with `O=C(NC1CCCC1)c1ccc(CSc2nc3cccnc3n2Cc2ccc(F)cc2)cc1`, inactive: -9.38%.
In the case of `CC(C)c1nc2ccc(C(=O)NC(C)c3ccccc3)cc2o1` (stereo unspecified), the “activation” value is inactive: 8.84%.
With `CCOC(=O)c1ccc2ncc3c(-c4ccccc4)nn(-c4ccc(F)c(Cl)c4)c3c2c1` the figure was inactive: -1.04%; with `CCOc1ccc(NC(=O)CSc2ncc3c(n2)-c2ccccc2N(Cc2ccccc2C)S3(=O)=O)cc1`, inactive: -10%.
With `CCCn1c2ccccc2c2cnn(CC(=O)N(CCCOC)Cc3ccco3)c(=O)c21` the figure was inactive: 19.1%.
Regarding `Oc1ccccc1-c1nc(/C=C/c2ccc(F)cc2)nn1-c1ccccc1`, the “activation” value was inactive: -13.3%.
On to `CC(=O)c1ccc(N2CCN(S(=O)(=O)c3ccc4c(c3)C(C)(C)C(=O)N4)CC2)cc1`, for which the “activation” value was inactive: -11.7%.
In the case of `COc1cccc(/C=C/C(=O)Nc2ccc3nc(N4CCN(C)CC4)cc(C)c3c2)c1OC`, the “activation” value was inactive: -0.199%.
With `CCN1C(C(=O)c2ccccc2)=C(OC(=O)c2ccccc2OC)c2ccccc2S1(=O)=O` the figure was inactive: -12.8%; with `Cc1cc(C(=O)NCc2ccccc2Cl)c2c(C)nn(-c3ccccc3)c2n1`, inactive: -10.4%; with `COc1cc(NC(=O)CSc2ncccc2C(=O)OC(C)C)cc(OC)c1`, inactive: -16.5%.
Then `COc1ccc(CCNC(=O)CS(=O)Cc2nc(-c3ccccc3F)oc2C)cc1OC` (stereo unspecified), with inactive: -10.7%.
Turning to `CCc1ccc(S(=O)(=O)c2nnn3c2nc(NC(C)C)c2sccc23)cc1`, the “activation” value is inactive: -8.2%.
Then `COc1ccc(CCNC(=O)c2ccc3c(c2)ncn3-c2ccc(C)cc2C)cc1OC`, with inactive: 5.13%; and `CC(C)CCNC(=O)CN1C(=O)CSc2ccc(S(=O)(=O)N3CCCCC3)cc21`, with inactive: 4.11%.
With `Cc1c(C(=O)N2CCN(c3ccccc3)CC2)sc2nc3n(c(=O)c12)CCC3` the figure was inactive: -13.7%; with `COc1cccc(CNC(=O)C2CCN(c3nnc(-n4c(C)ccc4C)s3)CC2)c1OC`, inactive: -2.68%.
Take `O=S1(=O)c2ccccc2N(Cc2cccc(Cl)c2)c2ccccc21`: the “activation” value was inactive: -20.6%.
In the case of `CCOc1ccc(-c2nc(CSCC(=O)NCc3ccc(Cl)cc3)c(C)o2)cc1`, the “activation” value was inactive: -3.28%.
Then `CCN(CC)CCNC(=O)c1ccc2c(=O)n3nc(Nc4ccccc4OC)sc3nc2c1`, with inactive: 3.01%; and `CC(=O)c1cc2c(cc1N/C(=N/S(=O)(=O)c1ccc(C)cc1)c1ccc(F)cc1)OCO2`, with inactive: -11.9%; and `CCCc1nc(SCc2cc(=O)c3ccc(C)c(C)c3[nH]2)n[nH]1`, with inactive: 3.13%.
With `COc1ccc(S(=O)(=O)N2CCN(Cc3nc4ccc(C)cc4o3)CC2)cc1Cl` the figure was inactive: -35.6%.
Then `CCC(C(=O)NCCc1ccccc1)n1nc(C)n2c(cc3sccc32)c1=O` (stereo unspecified), with inactive: -9.24%; and `Cc1ccc(NC(=O)c2ccc(-n3c(C)nnc3C)cc2)cc1F`, with inactive: -18.8%; and `CCc1ccccc1NC(=O)C1CCCN(C(=O)c2cnn(-c3ccccc3)c2-n2cccc2)C1` (stereo unspecified), with inactive: 0.588%.
`CCOC(=O)c1c(-c2ccc(C)cc2)csc1NC(=O)c1nc(SC(C)C)ncc1Cl`: the “activation” value is inactive: -21%.
Then `COc1cc2nc(NCc3ccc(C)cc3)n3nc(-c4ccccc4)nc3c2cc1OC`, with inactive: -7.26%.
With `Cc1ccc(NC(=O)CSc2nc3ccccc3nc2N2CCOCC2)cc1` the figure was inactive: -11.7%.
In the case of `CCOc1ccc(N2CC(NC(=O)c3ccc(S(=O)(=O)N4CCCCC4)cc3)CC2=O)cc1` (stereo unspecified), the “activation” value is inactive: 8.59%.
With `Cc1ccc(-c2cc(C(F)(F)F)n3nc(C(=O)NCC45CC6CC(CC(C6)C4)C5)cc3n2)cc1` the figure was inactive: -5.72%; with `CCOc1ccccc1NC(=O)c1c(NC(=O)c2cccc(C)c2)sc2c1CCC2`, inactive: -3.16%.
With `COc1cc(OC)c(NS(=O)(=O)c2ccc3c(c2)CCCN3C(C)=O)cc1Cl` the figure was inactive: -14.9%; with `CCc1cc2c(cc3c(=O)n(CC(=O)NC4CCC(C)CC4)ncn32)s1` (stereo unspecified), inactive: 2.73%; with `Cc1ccc(CN(Cc2ccco2)C(=O)c2ccc(OCC(C)C)cc2)cc1`, inactive: 3.49%.
Then `COc1ccc(NC(=O)c2c(NC(=O)COc3ccccc3)sc3c2CCC(C(C)(C)C)C3)cc1` (stereo unspecified), with inactive: -19.6%; and `CCCCN1CCc2nc(Nc3ccc(OC)cc3OC)ncc2C1`, with inactive: -5.47%.
Consider `Cc1nc2sccn2c(=O)c1S(=O)(=O)Nc1cc(Cl)ccc1O`, for which the “activation” value is inactive: -3.89%.
Take `CCOC(=O)c1cc(-c2ccc(F)cc2)n(CC(=O)NC2CCCCCC2)c1C`: the “activation” value was inactive: -3.46%.
With `Cc1ccc(-n2nc(C)c3c(C)c(CCC(=O)NCc4ccccc4Cl)c(C)nc32)cc1C` the figure was inactive: -10.6%.
For `Cc1cccc(NS(=O)(=O)c2ccc3[nH]c4c(c3c2)CCCCCC4)c1`, the “activation” value is inactive: -5%.
With `CCOc1cccc2c1N[C@@H](c1ccc(C(=O)O)cc1)[C@H]1CC=C[C@@H]21` the figure was inactive: -16.1%; with `Cc1ccc(C)c(N2CCN(C(=O)c3cc4c(=O)n(Cc5ccccc5)ccc4nc3C)CC2)c1`, inactive: -2.43%; with `Cc1ccc2c(c1)N(C(=O)N1CCC(C(=O)NCCc3ccc(Cl)cc3)CC1)CC(C)O2` (stereo unspecified), inactive: -7.54%.
As for `CCCCOc1ccc(C2=NC(c3ccncc3)=Nc3ccc(OCC)cc3N2)cc1`, the “activation” value is inactive: -18.3%.
On to `CCOc1ccccc1CNC(=O)C1CCN(c2nnc(-n3c(C)ccc3C)s2)CC1`, for which the “activation” value was inactive: -14%.
With `O=C(Cn1c(=O)n(CC2CCC(C(=O)NCCc3ccccc3)CC2)c(=O)c2ccccc21)Nc1ccccc1` (stereo unspecified), the “activation” value was inactive: 2.08%.
Then `COc1ccc2sc(N(Cc3cccnc3)C(=O)C3CCCCC3)nc2c1`, with inactive: -8.95%; and `CCc1ccc(CNC(=O)Cn2nc(C)n3c(cc4cc(C)ccc43)c2=O)cc1`, with inactive: -18.1%.
With `Cc1cccc(Cn2cccc2CNS(=O)(=O)c2ccccc2F)c1` the figure was inactive: -9%; with `CCc1ccc(NC(=O)CN2C(=O)C(c3ccc(C)cc3)=NC23CCCCC3)cc1`, inactive: -7.64%.
As for `COc1ccc(NC(=O)C(Cc2ccccc2)NS(=O)(=O)c2ccc3c(c2)CCC(=O)N3)c(OC)c1` (stereo unspecified), the “activation” value is inactive: -5.71%.
As to `Cc1ccc(Cn2c(=O)c3ccccc3n3c(-c4cccc(O)c4)nnc23)cc1`, the “activation” value is inactive: -6.68%.
Then `O=C(C1CCN(S(=O)(=O)c2cccc3nonc23)CC1)N1CCN(c2cccc(Cl)c2)CC1`, with inactive: -2.62%.
Turning to `COc1ccc(NC(=O)CSc2nc3nc(C)c(Cc4ccccc4)c(C)n3n2)cc1OC`, the “activation” value is inactive: -7.19%.
Turning to `CCN(CC)CCOC(=O)c1ccc(NC(=O)Cn2ncc3c2-c2cc(C)ccc2OC3)cc1`, the “activation” value is inactive: -14.3%.
As to `Cc1nn(-c2ccc(F)cc2)c(-n2cccc2)c1C(=O)NCCc1ccc(Cl)cc1`, the “activation” value is inactive: -46.2%.
Then `Cc1ccc2c(Cl)cc(Cl)c(O)c2n1`, with inactive: -23.6%; and `CC(C)OCCCn1c(SCC(=O)c2ccccc2)nc2c(sc3ccccc32)c1=O`, with inactive: -15.6%.
Then `Cc1cc(C)n2nc(CNS(=O)(=O)c3ccc(C)c(C)c3)nc2n1`, with inactive: -13.2%; and `O=C(Cc1ccc(F)cc1)NCc1ccc2c(c1)CCN2C(=O)c1ccc(F)cc1`, with inactive: -11.7%.
Then `O=C(CSc1nnc2ccc3ccccc3n12)Nc1ccccc1Cl`, with inactive: -6.65%.
As for `Cc1ccc(NS(=O)(=O)c2ccc(-n3cccn3)cc2)cc1Cl`, the “activation” value was inactive: 6.5%.
Then `CCOC(=O)N1CCc2c(sc3c2c(=O)n(-c2ccccc2C(F)(F)F)c(=O)n3Cc2ccccc2C)C1`, with inactive: 0.972%.

The values above are taken from PubChem BioAssay AID1159614 (National Center for Advancing Translational Sciences (NCATS), 2016).
